The record followed here is the supplement of paper PMC9446081.

About 220 (0.56%) of roughly 39,000 compounds showed activity. This is one part of the list.
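Also: static incubation at 37 °C against the wild-type strain, values averaged over two biological replicates.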

This test deals with Escherichia coli K-12 BW25113. Put plainly: relative growth (OD600 normalised to plate interquartile mean) (fraction); higher = less growth inhibition, active = 0.2 or less. The settings on record: 50 µM; LB; incubation time: overnight (16-24 h).
As for `C[C@@H]1CN([C@@H](C)CO)C(=O)Cc2cc(NC(=O)CCCCCC(=O)Nc3ccccc3N)ccc2O[C@H]1CN(C)C(=O)Nc1ccc(C(F)(F)F)cc1`, the relative growth was inactive: 0.995.
With `C[C@H](CO)N1C[C@H](C)[C@H](CN(C)C(=O)Cc2ccncc2)Oc2cc(C#CC3(O)CCCC3)ccc2S1(=O)=O`, the relative growth is inactive: 0.971.
The figure for `C[C@@H](Cc1c[nH]c2ccccc12)NC(=O)CN` is inactive: 0.997; for `Cc1noc(C)c1NC(=O)N(C)C[C@H]1OCCCC[C@@H](C)Oc2ccc(NC(=O)Nc3ccc(F)cc3)cc2C(=O)N([C@@H](C)CO)C[C@H]1C` it is inactive: 0.997; for `C[C@H](CO)N1C[C@H](C)[C@@H](CN(C)C(=O)NC2CCCC2)Oc2cc(-c3cccnc3)ccc2S1(=O)=O` it is inactive: 1.
As for `C[C@@H]1CN([C@H](C)CO)C(=O)Cc2cc(NS(=O)(=O)c3cn(C)cn3)ccc2O[C@@H]1CN(C)CC1CCCCC1`, the relative growth is inactive: 0.987.
Then `COc1ccc(NC(=O)Nc2ccc3c(c2)C(=O)N([C@@H](C)CO)C[C@@H](C)[C@H](CN(C)C(=O)NC2CCCCC2)OCCCC[C@@H](C)O3)cc1`, with inactive: 1; and `C[C@@H]1CN([C@@H](C)CO)C(=O)Cc2cc(NC(=O)Cn3cnnn3)ccc2O[C@H]1CN(C)Cc1ccccc1`, with inactive: 0.998; and `CO[C@@H]1CN(C)C(=O)c2cc(NC(=O)C3CCCC3)ccc2OC[C@@H](C)N(C(=O)Nc2ccc(C(F)(F)F)cc2)C[C@H]1C`, with inactive: 0.986.
On to `CS(=O)(=O)OCCCCOS(C)(=O)=O`, for which the relative growth is inactive: 0.892.
On to `Cc1noc(C)c1S(=O)(=O)N(C)C[C@@H]1Oc2ccc(NS(=O)(=O)c3cn(C)cn3)cc2CC(=O)N([C@@H](C)CO)C[C@@H]1C`, for which the relative growth was inactive: 0.994.
The figure for `C[C@H]1CN([C@@H](C)CO)C(=O)c2cc(C#Cc3ccncc3)cnc2O[C@H]1CN(C)C(=O)c1ccccc1F` is inactive: 0.974; for `C[C@@H]1CN([C@H](C)CO)C(=O)c2cc(NC(=O)C3CC3)ccc2O[C@@H]1CN(C)C(=O)Nc1ccc2c(c1)OCO2` it is inactive: 0.993; for `Cc1ccc(C(=O)O)c(=O)n1C` it is inactive: 1.02.
For the molecule `O=C(O)c1ccc(CNc2cn[nH]c(=O)n2)cc1`, the relative growth is inactive: 1.
With `O=C(C[C@H]1CC[C@@H]2[C@H](COC[C@H](O)CN2S(=O)(=O)c2ccc(Cl)cc2)O1)NCCN1CCCCC1`, the relative growth was inactive: 0.993.
Then `COCC(=O)N(C)C[C@@H]1Oc2cc(-c3ccc(C#N)cc3)ccc2S(=O)(=O)N([C@H](C)CO)C[C@H]1C`, with inactive: 0.996; and `COc1ccc(S(=O)(=O)Nc2ccc3c(c2)C(=O)N([C@H](C)CO)C[C@H](C)[C@H](CN(C)C(=O)Nc2ccccc2)OCCCC[C@@H](C)O3)cc1`, with inactive: 0.996.
The figure for `C=C(C)COc1ccc([N+](=O)[O-])cc1` is inactive: 0.983; for `CC(C)(C)[S@@+]([O-])N1Cc2cc(C(=O)NCc3ccc4c(c3)OCO4)nc(-c3ccc(-c4ccccc4)cc3)c2[C@H]1CCO` it is inactive: 1.04; for `CC(C)CC#Cc1ccc2c(c1)O[C@@H](CN(C)Cc1cncnc1)[C@H](C)CN([C@@H](C)CO)S2(=O)=O` it is inactive: 1.01.
Then `C[C@@H]1CCCCO[C@H](CN(C)C(=O)Nc2ccc3c(c2)OCO3)[C@H](C)CN([C@H](C)CO)C(=O)c2cc(NC(=O)Nc3ccc(F)cc3)ccc2O1`, with inactive: 1.02; and `C[C@H](CO)N1C[C@H](C)[C@@H](CN(C)C(=O)Cc2ccccc2)OCCCC[C@H](C)Oc2ccc(NC(=O)Nc3cccc4ccccc34)cc2C1=O`, with inactive: 1.04.
As to `COCCNC(=O)C[C@@H]1C[C@@H]2c3cc(NS(C)(=O)=O)ccc3O[C@@H]2[C@@H](CO)O1`, the relative growth is inactive: 1.01.
With `O=C(C[C@H]1CC[C@@H]2[C@H](COC[C@@H](O)CN2Cc2cc(F)ccc2F)O1)N[C@@H]1CCN(Cc2ccccc2)C1`, the relative growth is inactive: 1.
For `COc1ccc(CN(C)C[C@H]2OCCCC[C@@H](C)Oc3ccc(NC(=O)NC4CCCCC4)cc3C(=O)N([C@H](C)CO)C[C@H]2C)cc1`, the relative growth was inactive: 1.01.
For the molecule `CC=Cc1ccc2n(c1=O)C[C@H]1[C@H](CO)[C@@H](C(=O)NC3CCC3)[C@@H]2N1S(=O)(=O)c1cn(C)cn1`, the relative growth was inactive: 1.
For the molecule `C[C@@H]1CN([C@@H](C)CO)C(=O)c2cc(NC(=O)Nc3ccccc3)ccc2O[C@@H]1CN(C)Cc1ccc(Oc2ccccc2)cc1`, the relative growth was inactive: 1.01.
Then `Cc1c(NC(=O)c2cccnc2)c(=O)n(-c2ccccc2)n1C`, with inactive: 1.02.
For `CCCN(CCC)c1cc(N2CCCC2)c2ccccc2c1`, the relative growth is inactive: 0.922.
For `COCC#Cc1cnc2c(c1)C(=O)N([C@H](C)CO)C[C@H](C)[C@H](CN(C)C(=O)c1cnccn1)O2`, the relative growth was inactive: 1.02.
Regarding `C[C@@H]1CN([C@H](C)CO)C(=O)c2cccc(NC(=O)c3ccc(-c4nccs4)cc3)c2O[C@H]1CN(C)C(=O)NC1CCCCC1`, the relative growth is inactive: 0.992.
Then `C=CCOC(=O)[C@@H]1[C@H]2C(=O)O[C@H](c3ccccc3)[C@H](c3ccccc3)N2[C@H](c2ccc(OCCOC(=O)[C@@H]3C[C@@H]4C(=O)NCC(=O)N4[C@@H]3c3ccc(O)cc3)cc2)[C@@]12C(=O)Nc1ccc(I)cc12`, with inactive: 1.05.
The figure for `CN1C(=O)[C@H]2[C@H](C1=O)[C@H]1C=C(CCCO)[C@@H]2[C@H](c2ccc(CN3CCCC3)cc2)N1Cc1sc2ccccc2c1Cl` is inactive: 0.976; for `C[C@@H]1CN([C@@H](C)CO)C(=O)c2cc(C3=CCCC3)cnc2O[C@H]1CN(C)C(=O)c1ccc2c(c1)OCO2` it is inactive: 0.988; for `CNC[C@H]1Oc2c(NS(=O)(=O)c3cn(C)cn3)cccc2C(=O)N([C@H](C)CO)C[C@@H]1C` it is inactive: 0.988.
As for `CCCC#Cc1ccc2c(c1)O[C@@H](CN(C)S(=O)(=O)c1cccc(OC)c1)[C@H](C)CN([C@H](C)CO)S2(=O)=O`, the relative growth is inactive: 1.06.
As for `CNC(=O)c1cccc(CN)c1`, the relative growth is inactive: 1.01.
Turning to `COc1ccc(S(=O)(=O)N[C@@H]2CC[C@H](CCNC(=O)CN3CCOCC3)O[C@H]2CO)cc1`, the relative growth was inactive: 1.01.
The figure for `CC(C)NC(=O)N(C)C[C@H]1Oc2cc(C#Cc3ccccn3)ccc2S(=O)(=O)N([C@H](C)CO)C[C@H]1C` is inactive: 1; for `C[C@@H]1CN([C@@H](C)CO)C(=O)c2cc(NS(=O)(=O)c3cccs3)ccc2O[C@@H]1CN(C)S(=O)(=O)c1ccccc1` it is inactive: 1; for `C[C@@H]1CN([C@@H](C)CO)C(=O)Cc2cc(NC(=O)NC3CCCCC3)ccc2O[C@@H]1CN(C)Cc1ccc(C(F)(F)F)cc1` it is inactive: 1.02.
Then `Cc1ccccc1/C=C(\CCC(=O)O)c1nc2ccccc2s1`, with inactive: 1.02; and `C[C@H]1CN([C@@H](C)CO)C(=O)c2cccc(NC(=O)Nc3ccc(F)cc3)c2O[C@H]1CN(C)Cc1ccc(C(=O)Nc2ccccc2N)cc1`, with inactive: 0.986; and `CO[C@@H]1CN(C)C(=O)c2ccc(NS(=O)(=O)CC(F)(F)F)cc2OC[C@H](C)N(Cc2cccnc2)C[C@H]1C`, with inactive: 0.987.
Regarding `C[C@H](CO)N1C[C@H](C)[C@@H](CN(C)C(=O)c2ccccc2)OCCCC[C@H](C)Oc2ccc(NS(=O)(=O)c3ccc(Cl)cc3)cc2C1=O`, the relative growth was inactive: 1.01.
Turning to `O=C(C[C@@H]1CC[C@@H]2[C@H](COC[C@H](O)CN2C(=O)c2ccccc2F)O1)N1CCN(c2ccccc2)CC1`, the relative growth was inactive: 0.932.
On to `C[C@@H]1CCCCO[C@@H](CN(C)CC2CCCCC2)[C@@H](C)CN([C@H](C)CO)C(=O)c2cc(NC(=O)c3ccccc3)ccc2O1`, for which the relative growth is inactive: 0.979.
In the case of `C[C@H]1CCCCO[C@H](CN(C)C)[C@@H](C)CN([C@@H](C)CO)C(=O)c2cc(NC(=O)CCCN(C)C)ccc2O1`, the relative growth was inactive: 0.991.
The figure for `O=C(O)[C@@H]1CC(=O)N(c2ccc3c(c2)OCO3)C1` is inactive: 1.03.
Then `Cn1cc(CN2CCC(C(=O)N[C@@H](c3ccc(F)cc3)c3ccc4ccccc4n3)CC2)c2ccccc21`, with inactive: 0.963; and `O=C(C[C@H]1C=C[C@@H](NC(=O)CN2CCOCC2)[C@H](CO)O1)NCCc1ccccc1`, with inactive: 0.999; and `C[C@H](O)C#Cc1ccc2c(c1)O[C@H](CN(C)C(=O)c1ccncc1)[C@@H](C)CN([C@H](C)CO)S2(=O)=O`, with inactive: 0.999.
On to `Cc1ccc(S(=O)(=O)Nc2ccc3c(c2)C(=O)N([C@H](C)CO)C[C@@H](C)[C@@H](CN(C)Cc2ccc(C(=O)O)cc2)OCCCC[C@@H](C)O3)cc1`, for which the relative growth is inactive: 0.993.
Turning to `Cc1cc(O)c(C=O)c(O)c1C(=O)O`, the relative growth is inactive: 1.07.
As to `O=C1O[C@H](c2ccccc2)[C@H](c2ccccc2)N2[C@H]1[C@@H](C(=O)Nc1nc3ccccc3s1)[C@]1(C(=O)Nc3ccc(C#CCCO)cc31)[C@H]2c1ccc(O)cc1`, the relative growth was inactive: 1.04.
With `CC(C)NC(=O)N(C)C[C@H]1Oc2c(NC(=O)NC3CCCCC3)cccc2C(=O)N([C@H](C)CO)C[C@H]1C`, the relative growth is inactive: 0.972.
For `Cc1ccc(S(=O)(=O)N(C)C[C@H]2Oc3ccc(NC(=O)C4CC4)cc3CC(=O)N([C@@H](C)CO)C[C@@H]2C)cc1`, the relative growth was inactive: 0.998.
With `Cc1ccc(S(=O)(=O)Nc2cccc3c2O[C@H](CN(C)C(=O)NC(C)C)[C@@H](C)CN([C@@H](C)CO)C3=O)cc1`, the relative growth is inactive: 0.998.
As for `CCN(CC)S(=O)(=O)c1ccc(CN2C(=O)[C@]3(CC(=O)N(CCOC)C3=O)c3cc(F)ccc32)cc1`, the relative growth was inactive: 1.
For `COc1ccccc1S(=O)(=O)N(C)C[C@H]1Oc2ncc(Br)cc2C(=O)N([C@@H](C)CO)C[C@H]1C`, the relative growth was inactive: 0.973.
Regarding `COc1ccc(NC(=O)N(C)C[C@@H]2Oc3c(NC(=O)C4CC4)cccc3C(=O)N([C@H](C)CO)C[C@H]2C)cc1`, the relative growth is inactive: 0.981.
